Ends that are not written are not given here.

This is an account of results in patent US20200299366A1 (SHANGHAITECH UNIVERSITY, published 2020).

The target in assay [1] is human Cx26 protein expressed from the Cx26-Venus-YFP plasmid on HeLa DH cells (human, UniProt P29033). In words: cell-based or functional assay.
Assay [2] addresses T1, Cx26 polypeptide antigen (KEVWGDEQADFVCNTL, amino acids 41-56 of the extracellular region of human Connexin … (human, also: biotinylated, position not given here)).
T1 construct: also called biotinylated antigen polypeptide; peptide antigen CB
T1 peptide: KEVWGDEQADFVCNTL
In words: SPR, multi cycle kinetics: scFv II-Fc captured as ligand by anti-human IgG on a CM5 chip, antigenCB peptide as analyte. The method, then:
1. Octet RED instrument and its detection chip (CM5 chip) was purchased from Pall Corporation. 2. Anti-human IgG antibody was purchased from Thermo Scientific.
The affinity and kinetics of the antibody and the antigen were detected by the method of multi cycle kinetics. Immobilization of the antibody was performed by capture method. First, the anti-human IgG antibody was coupled to the CM5 chip, and then the Anti-Cx26-scFv II-Fc antibody sample flowed through the chip surface after being serial diluted. The antibody to be detected was then captured by the coupled anti-human Fc antibody. Then the polypeptide antigen (synthesized by Nanjing Genscript Co. Ltd, sequence: Seq ID NO: 5) was added, the antigen was bound with the antibody, and the signal was detected and recorded. Finally, the antibody and the antigen samples on the CM5 chip surface were eluted by regeneration reagent (glycine solution, pH1.7) for a new round of testing.
For orientation: In SPR one partner is held on a chip, and binding of the other changes the refractive index at the surface.

B1: Anti-Cx26-scFvII-Fc (Fc fusion)
chain: MAQVQLQQSGGGVVQPGRSLRLSCAASGFTFSSYAMHWVRQAPGKGLEWVAVISHGGSNKYYADSVKGRFTISRDNSKNTLYLQMNSLRAEDTAVYYCARDFSWRGYYMDVWGKGTLVTVSSGSGGGGSETTLTQSPATLSLSPGERATLSCRASQSISSYLAWYQQKPGQAPRLLIYGASTRATGIPDRFSGSGSGTDFTLTISRLEPEDFAVYYCQQYGSSPRTFGGGTKVEIKRGLGGPMVRS[skipping human IgG1 Fc]
notes: also called Anti-Cx26-scFv II-Fc antibody; scFv II-Fc antibody
With B1, in assay [1], the “Cx26 hemichannel activity (whole cell patch clamp hemichannel current, 940 nM antibody against 100 uM Zn2+)” value is 100 fold. In addition, in assay [2], the koff (usually a measure of how fast the partners let go of each other) was determined as 0.00422 s⁻¹ and the kon (in general, a measure of how fast the partners come together) turned out to be 57900 M⁻¹ s⁻¹.
